Measurements: patent EP1214397B1, “METHOD FOR THE SELECTIVE PROTECTION OF PROLIFERATING NORMAL CELLS AND THE SELECTIVE ERADICATION OF TUMOR CELLS HAVING AN INACTIVE P53 PATHWAY” (UNIVERSITA' DEGLI STUDI DI ROMA "LA SAPIENZA", priority 1999, dated 2001)

How the values were obtained:
[1] = system: C3H 10T1/2v-src/v-myc; assay: Colony formation assay, monoculture (Example 4; Table 9); assay type: cell-based, mouse; conditions: C3H10T1/2 v-src/v-myc
Source text: (§1) In order to quantify the effects of the combined CD/3FT use of the above example 3, the first, second and third assay series described in example 4 has been carried out on monocultures at a cell density allowing countable colonies.
(§2) The culture conditions, compounds concentrations, and treatments are the same described in example 3, with the exception of the cell system used have been for the first assay series a monoculture of C3H 10T1/2 cells at the clonal densities of 1×10^3, 5×10^3 and 1×10^4, for the second assay series a monoculture of C3H 10T1/2v-src/v-myc cells at the clonal densities of 5×10^2, 1×10^3 and 5×10^3, and for the third assay series a monoculture of L cells at the clonal densities of 5×10^2, 1×10^3 and 5×10^3.
(§3) The results of the assay series described in example 4 above carried out using dihydrocytochalasin B (referred to as H2CB in the table) and 3FT is reported in the following table 9.

[2] = system: C3H10T1/2; assay: as above; assay type: cell-based, mouse
Source text: as §1, §2, §3

[3] = system: tumor cells in culture; assay: Dose/response: concentration eradicating proliferating / tumor cells (CBCT); assay type: cell-based; conditions: for CBCT, minimum functional concentration required to eradicate tumor cells in culture: standard conditions
Experimental: Concerning the concentration of class B compound (CBCT), it is comprised in a range that should be calculated as a function of the CT, the target tumor cell type and the half-life in culture of the administered class B compound.
In particular, for the trifluorothymidine this concentration is greater than or equal to 40 µM, in particular comprised in the range 10µM - 800 µM, preferably 50 µM; for the cytarabine, this concentration is generally greater than or equal to 40 µM, in particular comprised in the range 40 µM - 600 µM, preferably 40 µM; for the 6-thioguanine, this concentration is generally greater than or equal to 50 µM, in particular a concentration comprised in the range 50 µM - 600 µM, preferably 100 µM.
In fact, by virtue of the protective action of the class A compound on the normal cells, such concentration may be increased up to 10-20 fold the mentioned minimum concentration thereof.

[4] = system: C3H10T1/2v-src/v-myc; assay: Focus-forming assay, culture of tumor cells alone (Examples 3, 9); assay type: cell-based, mouse; conditions: C3H10T1/2 v-src/v-myc alone, 5×10^2 cells per plate; percentage of treated with respect to untreated (=100); 400 nM CD T0-T84; class B drug T24-T72 (40 µM 3FT, 80 µM 2ClAd, 40µM Ara C)
[5] = system: C3H 10T1/2(v-src/v-myc); assay: Colony forming assay, interference with 3FT toxic effects on tumor cells (Example 6); assay type: cell-based, mouse; conditions: 5×10^2 cell/60mm; 400 nM CD or 3 µM CB T0-T84; 30 µM 3FT T24-T72; untreated 111
Experimental: In order to verify any possible interference between CD and 3FT actions on tumor cells, a series of colony forming assays has been carried out on C3H 10T1/2(v-src/v-myc).
The cells have been therefore plated on 60mm plates at a 5×10^2 cell/60mm density, at the culture conditions described in example 3, and the initial time of 12 hours have been subjected to the following treatments.
After the above administrations, cells were treated as described in example 3.

[6] = system: L cells; assay: Colony formation assay, monoculture (Example 4); assay type: cell-based; conditions: 5×10^2 cells, 400 nM CD T0-T84, 40 µM 3FT T24-T72
Source text: as §1, §2

[7] = system: mixed culture of C3H10T1/2 and C3H10T1/2v-src/v-myc; assay: Focus-forming assay, mixed culture of normal and tumor cells (Examples 3, 9); conditions: for requested time for normal cell monolayer reforming: after combined treatment with CD (Example 9); for proliferation restart time: normal cell monolayer reforming after combined treatment with CD (description); for normal cell monolayer / number of transformation foci: mixed culture, 400 nM CD T0-T84, class B drug T24-T72 (40 µM 3FT, 80 µM 2ClAd, 40µM Ara C); for normal cell monolayer: first entry of the cell (normal cells); for number of transformation foci: second entry of the cell (tumor cells), percentage of treated with respect to untreated (=100)
[8] = system: C3H10T1/2 cells reversibly arrested in G0/G1 by growth factor deprivation; conditions: mouse, 48 h
Experimental: The choice of carrying out the assays on cells arrested in the G0/G1 phase by growth factor deprivation rather than on cells treated with cytochalasin D or analogues thereof was made for ease of assaying.
In a first assay 40µM 3FT for 48 h, in a second assay Ara C 40µM for 48 h, in a third assay 80µM 2ClAd for 48 h, in a fourth assay 100µM 6 thioguanine (6Thg) for 48 h, in a fifth assay 1µg/ml Doxorubicine (Doxo) for 48 h have been administered on the G0/G1 arrested C3H10T1/2 cells.
The above concentrations are the minimum for killing proliferating cells calculated on the basis of cell cycle duration.
After release from drug treatment, cells were washed 2x and left in low serum for other 12 h, to allow washing of residual drugs under non-proliferating conditions.
After the 24 h period in low serum, proliferation medium (DMEM +10% FCS), supplemented with 20µM BrdU in order to mark the DNA-synthesizing cells, has been additioned to the cell culture. After a 24-h stimulation, the cells have been fixed and processed as reported in Grossi et al. 1991 (18). The percentage of DNA-synthesizing cells in the 24-h labeling period has been detected by immunofluorescence, as reported in Grossi et al. 1991 (18).
The culture and assay conditions are those described in example 10, except for the pharmacological treatment, which in the present assay series consists of the following.

[9] = system: C3H10T1/2; assay: Focus-forming assay, culture of normal cells alone (Examples 3, 9); assay type: cell-based, mouse; conditions: C3H10T1/2 alone, 10^4 cells per plate; 400 nM CD T0-T84; class B drug T24-T72 (40 µM 3FT, 80 µM 2ClAd, 40µM Ara C); Confluent = completely formed monolayer
[10] = system: human lung fibroblasts transformed with E6 (HF E6); assay: Nuclei number state after cytochalasin D (Example 2); assay type: cell-based; conditions: 400 nM CD for 72 h
Experimental: (§4) Each cell culture was plated on 35mm plates at a 1×10^4cells/plate density, under the following conditions considered herein as standard conditions. Cells were grown on a plastic substrate (Falcon-BD), in a culture medium made of Dulbecco's modified Eagle's Medium supplemented with 2mM L-glutamine, antibiotics, 10% fetal bovine serum, at 37°C with 5% CO2 and 90% humidity. The following assays have been therefore carried out.
(§5) In an initial time of 12 hours c.ca (step common also to the other assays herein reported) cells were allowed to grow up, but within a density allowing their proliferation, thus ensuring the utmost reliability of the assay result, that otherwise could be altered by cells arrested for reasons other than compound administration. After this first step the following administrations have been carried out.
(§6) E6 is in fact an oncogene, the product thereof being capable of sequestering and inhibiting the p53 function, whereas E7 is another oncogene, the product thereof being capable of sequestering the Rb function. This assay series accordingly allows in fact to extend also to human cells the growth arrest, at the binucleate stage, by CD, as due to an active p53 pathway in normal cells, and at the same time it confirms the non-implication of Rb therein.
(§7) After the initial time of 12 h c.ca (see above) the following assays have been in particular carried out.
In a second assay series 400 nM CD for 72 h (T0-T72) and 0.11% DMSO for 72 h (T0-T72) as a control thereof, have been administered to human lung fibroblasts transformed with E6 (HF E6).

[11] = system: control human lung fibroblasts (HF LXSN); assay: as above; assay type: cell-based; conditions: 400 nM CD for 72 h
Experimental: as §4, §5, §6, §7
In a first assay series 400 nM CD for 72 h (T0-T72) or 0.11% DMSO for 72 h (T0-T72) as a control thereof, have been administered to control human lung fibroblasts (HF LXSN).

[12] = system: C3H10T1/2v-src/v-myc cells; assay type: cell-based, mouse
Source text: In order to verify a possible interference on 3FT uptake by tumor cells, the compounds mentioned in example 7 have been assayed on C3H10T1/2v-src/v-myc cells, measuring the uptake of tritiated thymidine. It is well known in fact that the uptake mechanism of the latter and that of 3FT (and generally of antimetabolites) are the same (6).
Cells have been plated in a 24-well plate, with a 5x10^4 cells/well and the assays have been carried out under standard culture conditions, as described in example 1. […]
The various samples once additioned with scintillation liquid, have been analyzed in a β-counter. The emission values, normalized for the amount of proteins in each sample (quantified by Lowry method) are expressed in count values for min/microgram protein in column 3. As controls there have been considered: • a first C3H10T1/2v-src/v-myc cell culture let free to proliferate for the overall assay (12 h + 24 h + 5 h) the radioactivity thereof being determined at the β-counter. • a second C3H10T1/2v-src-myc cell culture let free to proliferate for the initial 12 h and for the pharmacological treatment assay (12 h + 24 h), then subjected to the uptake of 4µCi/ml tritiated thymidine for 5 h and subsequently subjected to uptake determination at the β-counter.

[13] = 5×10^2 cells, class A drug T0-T84 (400 nM CD or H2CB), 40 µM 3FT T24-T72
[14] = C3H10T1/2, 1×10^3 cells, class A drug T0-T84 (400 nM CD or H2CB), 40 µM 3FT T24-T72

Structure (SMILES): O=c1[nH]c(=O)n([C@H]2C[C@H](O)[C@@H](CO)O2)cc1C(F)(F)F [3FT, 2'-deoxy-5-trifluoromethyluridine]
- number of colonies ([1]; 1×10^3 cells, class A drug T0-T84, 40 µM 3FT T24-T72): 0
- number of colonies [1, 13]: 0
- number of colonies ([1]; 5×10^3 cells, class A drug T0-T84, 40 µM 3FT T24-T72): 0
- number of colonies [2, 14]: 0
- number of colonies ([2]; C3H10T1/2, 1×10^4 cells, class A drug T0-T84, 40 µM 3FT T24-T72): 0
- number of colonies ([2]; C3H10T1/2, 5×10^3 cells, class A drug T0-T84, 40 µM 3FT T24-T72): 0
- CBCT, minimum functional concentration required to eradicate tumor cells in culture [3]: 50 µM
- number of transformation foci [4]: complete death
- Colonies [5]: 2
- number of colonies [6]: 0
- requested time for normal cell monolayer reforming [7]: 5 days
- proliferation restart time [7]: ~7 days

Structure (SMILES): Nc1ccn([C@@H]2O[C@H](CO)[C@@H](O)[C@@H]2O)c(=O)n1 [Ara C, cytarabine]
- dosage increase that begins to entail a relevant toxicity [8]: 6 fold
- normal cell monolayer [9]: 0
- CBCT, minimum functional concentration required to eradicate tumor cells in culture [3]: 40 µM
- minimum concentration for killing at least 90% of the proliferating cells ([3]; within the time of the combined treatment (48 h)): 40 µM
- number of transformation foci [4]: 0
- requested time for normal cell monolayer reforming [7]: 5 days
- normal cell monolayer [7]: 0 0
- number of transformation foci [7]: 0 0
- proliferation restart time [7]: ~7 days

Structure (SMILES): C=C1[C@@H](C)[C@H]2[C@H](Cc3ccccc3)NC(=O)[C@]23[C@H](OC(C)=O)/C=C/[C@@](C)(O)C(=O)[C@@H](C)C/C=C/[C@H]3[C@@H]1O [cytochalasin D]
- %>4N ([10]; >4 nuclei cells): 16%
- %2N ([10]; binucleate cells): 34%
- %1N ([10]; mononucleate cells): 12%
- %3-4N ([10]; tri-tetranucleate cells): 38%
- %>4N ([11]; >4 nuclei cells): 0%
- %2N ([11]; binucleate cells): 57%
- %1N ([11]; mononucleate cells): 40%
- %3-4N ([11]; tri-tetranucleate cells): 3%
- number of colonies [1, 13]: 18
- number of colonies [2, 14]: 49
- normal cell monolayer [9]: Confluent
- CPM/µg prot. ([12]; 4µCi/ml Thymidine (H^3) 5 h after 24 h drug, concentration (nM) printed with the drug, control 505): 391 CPM/µg prot.
- tritiated thymidine uptake, emission values ([12]; 4µCi/ml tritiated thymidine 5 h after 24 h drug (3000 nM CB, 400 nM CD, 650 nM Latrunculin B, 700 nM Jasplakinolide, 100 nM Condramide), control 505 cpm/µg): 391 cpm/µg
- normal cell monolayer [7]: Confluent
- number of transformation foci [7]: slight decrease
- number of transformation foci ([7]; listed as CD): 30 and 40

“And” between values parts separate entries of the source, which are not always exact repeats. Equal values may be shown once.
